Assay results from US20200392253A1.

B1: anti-bio/anti-fluos bispecific antibody from exchange of bio 2/3-IgG (MHCFcRP-knob-E357K) with fluos 2/3-IgG (MHCFcRP-hole-K370E) (bispecific antibody)
heavy 1: QVQLVQSGAEVKKPGSSVKVSCKSSGFNNKDTFFQWVRQAPGQGLEWMGRIDPANGFTKYAQKFQGRVTITADTSTSTAYMELSSLRSEDTAVYYCARWDTYGAAWFAYWGQGTLVTVSS[human IgG1 constant region with changes left out]
light 1: DIQMTQSPSSLSASVGDRVTITCRASGNIHNYLSWYQQKPGKVPKLLIYSAKTLADGVPSRFSGSGSGTDFTLTISSLQPEDVATYYCQHFWSSIYTFGQGTKLEIKRTVAAPSVFIFPPSDEQLKSGTASVVCLLNNFYPREAKVQWKVDNALQSGNSQESVTEQDSKDSTYSLSSTLTLSKADYEKHKVYACEVTHQGLSSPVTKSFNRGEC
heavy 2: GVKLDETGGGLVQPGGAMKLSCVTSGFTFGHYWMNWVRQSPEKGLEWVAQFRNKPYNYETYYSDSVKGRFTISRDDSKSSVYLQMNNLRVEDTGIYYCTGASYGMEYLGQGTSVTVSSASTKGPSVFPLAPSSKSTSGGTAALGCLVKDYFPEPVTVSWNSGALTSGVHTFPAVLQSSGLYSLSSVVTVPSSSLGTQTYICNVNHKPSNTKVDKKV[human IgG1 Fc with changes left out]
light 2: DIVMTQTPLSLSVTPGQPASISCKSSQSLVHSNGNTYLRWYLQKPGQSPKVLIYKVSNRVSGVPDRFSGSGSGTDFTLKISRVEAEDVGVYYCSQSTHVPWTFGQGTKLEIKRTVAAPSVFIFPPSDEQLKSGTASVVCLLNNFYPREAKVQWKVDNALQSGNSQESVTEQDSKDSTYSLSSTLTLSKADYEKHKVYACEVTHQGLSSPVTKSFNRGEC
B2: anti-fluos/anti-bio bispecific antibody from exchange of fluos 2/3-IgG (MHCFcRP-knob-E357K) with bio 2/3-IgG (MHCFcRP-hole-K370E) (bispecific antibody)
heavy 1: GVKLDETGGGLVQPGGAMKLSCVTSGFTFGHYWMNWVRQSPEKGLEWVAQFRNKPYNYETYYSDSVKGRFTISRDDSKSSVYLQMNNLRVEDTGIYYCTGASYGMEYLGQGTSVTVSS[human IgG1 constant region with changes left out]
light 1: B1 light 2
heavy 2: QVQLVQSGAEVKKPGSSVKVSCKSSGFNNKDTFFQWVRQAPGQGLEWMGRIDPANGFTKYAQKFQGRVTITADTSTSTAYMELSSLRSEDTAVYYCARWDTYGAAWFAYWGQGTLVTVSSASTKGPSVFPLAPSSKSTSGGTAALGCLVKDYFPEPVTVSWNSGALTSGVHTFPAVLQSSGLYSLSSVVTVPSSSLGTQTYICNVNHKPSNTKVDKKV[human IgG1 Fc with changes left out]
light 2: B1 light 1

Experiments:
[1] = biological target: PDGF (CST, #8912) (UniProt P01127); experiment: bridging ELISA: capture PDGF, detection digoxygenin-Cy5 (signal needs both arms); exchange mix, input 1.3 µM; highest value = 100%
UniProt P01127, sequence (P01127 82-190): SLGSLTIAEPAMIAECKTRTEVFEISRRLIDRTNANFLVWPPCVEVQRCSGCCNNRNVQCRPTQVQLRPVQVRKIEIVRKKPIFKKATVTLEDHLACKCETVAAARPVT

[2] = biological target: PDGF (CST, #8912) (UniProt P01127); experiment: bridging ELISA: capture PDGF, detection biocytinamid-Cy5 (signal needs both arms); exchange mix, input 1.3 µM; highest value = 100%

| relative signal intensity [1] [%] | relative signal intensity [2] [%] | Binder |
| --- | --- | --- |
| 3 | 3 | B1 |
| 3.7 | 3.2 | B2 |
